# Hit rate of the full screen: of about 310,000 compounds, about 18,000 (5.8%) were called active. Inconclusive results, whose numbers are uncertain, are shown with a selection of clear calls. The call rests on the fitted dose curve; in most records, active means well fitted inhibition curve with a large enough effect; inconclusive means small, poorly fitted or top-dose-only effect, or another doubt; inactive means no such curve, though single readings can be large or run the other way. Potencies of inconclusive entries are left out as doubtful fits.
# Assay: Primary qHTS for delayed death inhibitors of the malarial parasite plastid, 48 hour incubation
# Conditions: P. falciparum luciferase growth in erythrocytes; series mostly up to 28.7 µM; activity change, negative = inhibition: at the top concentration
# Procedure, shortened: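 Luminescence readout; reporter = integrated firefly luciferase in P. falciparum. RBC culture at 2% hematocrit, 0.1% parasitemia final, 37 C/5% CO2; decreased signal taken as growth inhibition.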
# On the % scale 0 is the no-effect control and ±100 the full control effect; potency means the concentration at half of the fitted maximal effect; tags describe the fitted curve by direction and shape.
SMILES,Potency,"activity change, negative = inhibition"
COc1ccc(/C=C/CN2CCN(Cc3cccc(OC)c3)C(CCO)C2)cc1 (stereo not given),"inconclusive [inhibitor, partial curve, poor fit]",–
C=CCN1C(=O)c2ccc(C(=O)N(CC)CC(=O)Nc3c(F)cccc3F)cc2C1=O,"inconclusive [inhibitor, single point]",–
CCOc1ccccc1N1CCN(C(=O)c2cccc(S(=O)(=O)N3CCOCC3)c2)CC1,"inconclusive [inhibitor, partial curve]",–
CC(C)(C)c1ccc(C(=O)Nc2ccc(C(=O)N3CCOCC3)cc2)cc1,"inconclusive [inhibitor, partial curve, poor fit]",–
O=C(N/N=C/c1ccccc1[N+](=O)[O-])c1ccc2nc[nH]c2c1,"inconclusive [inhibitor, partial curve, poor fit]",–
C(=C\c1ccc(/C=C/c2ccccc2)nn1)/c1ccccc1,–,inactive: 3.22%
CN(C1CCCCC1)S(=O)(=O)c1ccc(S(=O)(=O)N2CCCC2)cc1,"inconclusive [inhibitor, partial curve, poor fit]",–
COc1ccc(/C=N\NC(=O)c2ccccc2Br)cc1COc1ccc(F)cc1,"inconclusive [inhibitor, single point]",–
COc1ccc(-n2c(CN3CCN(c4ccccc4OC)CC3)nc3ccc([N+](=O)[O-])cc3c2=O)c(OC)c1,active: 13.1 µM,–
O=C(CN(CCc1ccccc1)Cc1ccccc1)Oc1ccccc1P(=O)(O)O,–,inactive: 27.3%
CCOC(=O)CSc1nc2ccccc2c(=O)[nH]1,–,inactive: 20.4%
Clc1ccc(-c2nnc(-c3ccccc3Cl)o2)cc1,–,inactive: 81.5%
O=C(/C=C/c1ccc(Cl)cc1Cl)N1CCc2ccccc21,–,inactive: 407%
COc1cc(CCN2C(=O)c3cccc4cccc(c34)C2=O)c(S(=O)(=O)NCCCO)cc1OC,"inconclusive [inhibitor, partial curve]",–
COc1ccc(NC(=O)c2sc3nc(N4CCOCC4)c4c(c3c2N)CC(C(C)C)OC4)c(OC)c1 (stereo not given),"inconclusive [inhibitor, partial curve, poor fit]",–
Cc1onc(-c2ccccc2)c1C(=O)NCc1ccccn1,"inconclusive [inhibitor, single point]",–
O=C(Nc1ccc(N2CCOCC2)c(Cl)c1)c1ncn[nH]1,"inconclusive [inhibitor, partial curve, poor fit]",–
O=C(NNC(=O)c1ccccc1F)c1cccc(-n2cccc2)c1,–,inactive: 25%
O=C(N/N=C/c1ccc[nH]1)c1cc(-c2ccc(Cl)cc2)nc2ccccc12,"inconclusive [inhibitor, single point]",–
O=C(Nc1ccc(Br)cc1)c1ccccc1CC[N+](=O)[O-],"inconclusive [inhibitor, single point]",–
COc1ccc(CNc2oc(Cc3cccc4ccccc34)nc2C#N)cc1,"inconclusive [inhibitor, single point]",–
C=CCn1c(SC(C)C(N)=O)nc2sc(CC)cc2c1=O (stereo not given),"inconclusive [inhibitor, full curve, poor fit]",–
Cc1cc(C)n(-c2ccc(C(=O)Nc3cccnc3)cc2)n1,–,inactive: -4.7%
CCOc1ccc(C(=O)CCC(=O)Nc2ncccc2O)cc1,"inconclusive [inhibitor, single point]",–

SMILES,Potency,"activity change, negative = inhibition"
COc1cc(NC(=O)C2CCN(S(=O)(=O)c3ccc4c(c3)CC(C)N4C(C)=O)CC2)cc(OC)c1OC (stereo not given),"inconclusive [inhibitor, partial curve, poor fit]",–
CCOc1ccc(NC(=O)N2CC(C)OC(C)C2)cc1 (stereo not given),"inconclusive [inhibitor, partial curve, poor fit]",–
COc1ccc(-c2nc(C#N)c(N3CCC(C)CC3)o2)cc1,–,inactive: -10.7% [at 0.00184 µM]
COc1ccc(-n2c(Cc3cccn3C)nnc2SCC(=O)Nc2cccc(Cl)c2)cc1,"inconclusive [inhibitor, partial curve]",–
CC1(c2ccc(Cl)cc2)NC(=O)N(CN2CCOCC2)C1=O (stereo not given),–,inactive: 0.808%
CC(C)Cn1c(N)c(C(=O)COC(=O)c2ccc3ccccc3n2)c(=O)n(C)c1=O,–,inactive: -17.4%
Cc1ccc(C)c(CSCC(=O)NCc2cccs2)c1,"inconclusive [inhibitor, partial curve, poor fit]",–
Cc1cc(=O)oc2cc(NC(=O)c3cc4ccccc4o3)ccc12,–,inactive: 99.9%
C(=C\CSc1nnnn1-c1ccccc1)/CSc1nnnn1-c1ccccc1,"inconclusive [inhibitor, single point]",–
CC(C)COC(=O)c1ccc(N)cc1,–,inactive: 27.8%
COc1nc(Nc2ccc(C(C)=O)cc2)nc(OC)n1,active: 14.7 µM,–
O=C(Nc1nc(-c2ccc(F)cc2)cs1)c1cccc(N2C(=O)CCC2=O)c1,–,inactive: 4.04%
CNCCCCOc1ccc(C(C)(C)C)cc1Cl,"inconclusive [inhibitor, partial curve, poor fit]",–
COCC(C)n1c(SCc2ccc(C(=O)OC)cc2)nc2ccccc2c1=O (stereo not given),"inconclusive [inhibitor, single point]",–
COc1ccc(CCNC(=O)/C=C/c2ccco2)cc1OC,–,inactive: 12.3%
Cc1ccc(/C=c2/sc3n(c2=O)CCCN=3)o1,–,inactive: 221%
Cc1ccc(S(=O)(=O)N2CCOC2CNC(=O)C(=O)NCc2ccc3c(c2)OCO3)cc1 (stereo not given),"inconclusive [inhibitor, full curve, poor fit]",–
Cc1ccc(S(=O)(=O)Nc2ccc(-c3csc(-c4ccccc4)n3)cc2)cc1,–,inactive: 15.9%
COc1cc(/C=N/Nc2nc(=O)[nH]nc2C)cc(OC)c1O,"inconclusive [inhibitor, full curve]",–
O=C(Nc1ccc(Cl)c(S(=O)(=O)N2CCOCC2)c1)c1cc(-c2ccccn2)nc2ccccc12,active: 11.7 µM,–
CCc1ccc(N2CCN(S(=O)(=O)CC34CCC(CC3=O)C4(C)C)CC2)cc1 (stereo not given),"inconclusive [inhibitor, partial curve, poor fit]",–
O=C1CN(C(=O)COc2ccc([N+](=O)[O-])cc2Cl)c2ccccc2N1,active: 2.94 µM,–
CN1CCN(c2ccccc2NC(=O)c2cc3ccccc3o2)CC1,"inconclusive [inhibitor, partial curve]",–
Oc1ccc(CN2CCc3ccccc3C2)c2cccnc12,"inconclusive [inhibitor, single point]",–

SMILES,Potency,"activity change, negative = inhibition"
COc1ccc(S(=O)(=O)N2CCCC(C(=O)NC3CC3)C2)cc1Cl (stereo not given),"inconclusive [inhibitor, partial curve]",–
N#Cc1cc(-c2ccc(Cl)cc2)cnc1Sc1ccc(F)cc1,"inconclusive [inhibitor, partial curve]",–
O=C(C1CCCN(S(=O)(=O)c2ccccc2)C1)N1CCCc2ccccc21 (stereo not given),"inconclusive [inhibitor, partial curve]",–
CCN(CC(=O)Nc1c(F)cccc1F)C(=O)c1ccc(S(=O)(=O)NCc2ccco2)cc1,–,inactive: 14.5%
COc1cc(OC)nc(NC(=O)CN2CCN(c3ccc(F)cc3)CC2)n1,–,inactive: -12.8%
O=C(CBr)c1ccc([N+](=O)[O-])c(CS(=O)(=O)c2ccc(Cl)cc2)c1,–,inactive: 1.91% [at 0.00184 µM]
COc1ccc(-c2nnc(NC(=O)c3ccc(S(=O)(=O)N4COCC4(C)C)cc3)o2)cc1,active: 11.7 µM,–
CN(Cc1cccnc1)C(=O)c1ccc(Cl)c(NS(=O)(=O)c2ccc(F)cc2)c1,"inconclusive [inhibitor, single point]",–
C/C=C(\C)C(=O)N1CCC(C(=O)c2ccccc2)CC1,–,inactive: -8.8% [at 0.00184 µM]
COc1ccc(CNC(=O)C(C)N2C(=O)NC(c3ccccc3)(c3ccccc3)C2=O)cc1 (stereo not given),"inconclusive [inhibitor, single point]",–
O=C(c1ccc([N+](=O)[O-])s1)N1CCCc2ccccc21,"inconclusive [inhibitor, partial curve]",–
COc1ccccc1C1C2=C(N=c3s/c(=C/c4cccc(OCC(=O)O)c4)c(=O)n31)c1ccccc1CC2 (stereo not given),active: 10.4 µM,–
CCN(CC)Cc1cc(C(=O)O)c(C)o1,–,inactive: 40.7%
Cc1ccc(NC(=O)CS(=O)CC(=O)Nc2ccc3c(c2)OCO3)cc1Cl (stereo not given),–,inactive: 3.14%
O=C(CCCC(=O)N(c1cccc(F)c1)C(C(=O)NC1CCCC1)c1ccc(O)cc1)Nc1ccccn1 (stereo not given),"inconclusive [inhibitor, partial curve, poor fit]",–
COc1cccc(/C=C/c2n[nH]c(=O)c(C#N)c2C)c1,"inconclusive [inhibitor, partial curve, poor fit]",–
Cc1ccc2oc(=O)c3cc(C(=O)NCCCN4CCN(C)CC4)sc3c2c1,–,inactive: 5.57%
Cc1ccc(-c2[nH]c3ccccc3c2SCCNC(=O)c2ccc(S(=O)(=O)N3CCOCC3)cc2)cc1,"inconclusive [inhibitor, partial curve, poor fit]",–
O=C(Nc1ccccc1C(=O)Nc1ccncc1)c1cccc([N+](=O)[O-])c1,–,inactive: 5.98%
O=C(O)C1Cc2ccccc2CN1C(=O)CSc1nnc2ccccn12 (stereo not given),–,inactive: 23.3%
COc1ccccc1OCCCn1cc(C(=O)c2ccco2)c2ccccc21,"inconclusive [inhibitor, single point]",–
COCCn1c(SCC(=O)N2CC(=O)Nc3ccccc32)nc2ccccc21,–,inactive: -30.2%

# Source: PubChem BioAssay AID504832 (National Center for Advancing Translational Sciences (NCATS), 2011)
